Laboratory results taken from the RNAGym collection of RNA variant scans (doi:10.1073/pnas.2313332121).
Variants at the background level are over-represented here.

B1: TPR 5TU (parent)
chain: GGAUCUUCUCGAUCUAACAAAAAAGACAAAUCUGCCACAAAGCUUGAGAGCAUCUUCGGAUGCAGAGGCGGCAGCCUUCGGUGGCGCGAUAGCGCCAACGUUCUCAACUAUGACACGCAAAACGCGUGCUCCGUUGAAUGGAGUUUAUCAUG

Variants of: B1
Assay: polymerase ribozyme fitness, log enrichment relative to wild type (log ratio); higher = more active; in vitro selection for triplet polymerase activity
Summary of the method: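 After PCR construction and transcription, each subunit's mutant library from a heterodimeric triplet polymerase ribozyme was annealed with a biotinylated primer, the partner subunit and triplets. Incubation was frozen, at −7 °C, and extended constructs were gel-excised, bound to streptavidin beads and amplified by RT-PCR, in one selection round done in triplicate. Fitness is the logarithm of a genotype's enrichment divided by that of the wild type, from inverse-variance-weighted replicate averages of Illumina-sequenced inputs and outputs. The base of the logarithm is 2, and genotypes needed ≥10 input reads and ≥1 read per output.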

| Variant | polymerase ribozyme fitness (log ratio) |
| --- | --- |
| C35U C72G C99A | ≤ -4.2 |
| C35U C75G C93U A115U A120U A122G | ≤ -4.2 |
| C35U C75U C85U G140C | ≤ -4.2 |
| C35U C85A C105U U109G G141A G143U U146A A147U U148C | ≤ -4.2 |
| C35U C95G | -1.22 |
| C35U C95U A107C U109A A115U | ≤ -4.2 |
| C35U C99G A119C G141U | -1.83 |
| C35U G46A C54G C96G A107C C118U | ≤ -4.2 |
| C35U G46C C72U G74U C96U A107G | ≤ -4.2 |
| C35U G50C C76A A89G A91G U109A A137C G143U | ≤ -4.2 |
| C35U G50C U55A C87U | ≤ -4.2 |
| C35U G62U A64G C76A G83A G84C G152C | ≤ -4.2 |
| C35U G67A G92U | ≤ -4.2 |
| C35U G74A G86A C96G C114A A150C | ≤ -4.2 |
| C35U G86U | -1.43 |
| C35U G88A | -4.1 |
| C35U G94A C108A A150U | ≤ -4.2 |
| C35U G94U G128C | ≤ -4.2 |
| C35U G117U | 0.973 |
| C35U G128U A138C A142C | ≤ -4.2 |
| C35U G140C | -4.13 |
| C35U U44A C54A C87U A110U | ≤ -4.2 |
| C35U U53A C99U C105U A106C A115C | ≤ -4.2 |
| C35U U53A U55A G83U U101A | ≤ -4.2 |

| Variant | polymerase ribozyme fitness (log ratio) |
| --- | --- |
| C35U U55A A73U G88A A122U | ≤ -4.2 |
| C35U U55A G84U A147C | -2.79 |
| C35U U56A A91U C116U U134C U146C U148C | ≤ -4.2 |
| C35U U56A C76A G83U C93G G136A G152C | ≤ -4.2 |
| C35U U61A A66C C69U | ≤ -4.2 |
| C35U U61A C76A | ≤ -4.2 |
| C35U U61C C72A G141U | ≤ -4.2 |
| C35U U101G A110U A138G | ≤ -4.2 |
| C36A A37C G84A C85G U101G | ≤ -4.2 |
| C36A A52C C85G A120G A122U U148A | -3.85 |
| C36A A66G A91U A107C C116A A150G | ≤ -4.2 |
| C36A A73G C96U A121C C131U | ≤ -4.2 |
| C36A A73G U134C | ≤ -4.2 |
| C36A A73U G92U U134G G143U | -4.13 |
| C36A A122U G126A G136C | ≤ -4.2 |
| C36A C54G C57A G86A U139G | ≤ -4.2 |
| C36A C79U | ≤ -4.2 |
| C36A C85U | -3.7 |
| C36A C87G A107C | ≤ -4.2 |
| C36A C87U A106U U139A G143C U148C G152A | ≤ -4.2 |
| C36A C87U G140C | ≤ -4.2 |
| C36A C93U A98C | ≤ -4.2 |
| C36A C96A G133A | ≤ -4.2 |
| C36A C96U A98G | ≤ -4.2 |

| Variant | polymerase ribozyme fitness (log ratio) |
| --- | --- |
| C36A C99A C114U U135G | ≤ -4.2 |
| C36A C105U U127G | ≤ -4.2 |
| C36A C132G U145G | ≤ -4.2 |
| C36A G46A C96U U148A | ≤ -4.2 |
| C36A G48A A60G G68C U78G C85U C93U U151A | ≤ -4.2 |
| C36A G48U C96G | ≤ -4.2 |
| C36A G59A U144G | -3.49 |
| C36A G74A A107C C116A | ≤ -4.2 |
| C36A G80C A91C C125G G133C A150U | ≤ -4.2 |
| C36A G83C C87G G117A C131G | ≤ -4.2 |
| C36A U45A G92C | ≤ -4.2 |
| C36A U45G G68U C95U | ≤ -4.2 |
| C36A U55A U61A C79G G81C A137G | ≤ -4.2 |
| C36A U55G C57A C69G A106C G133C | ≤ -4.2 |
| C36A U56A | -3.62 |
| C36A U78A | ≤ -4.2 |
| C36A U78G A89C U102G U111A | ≤ -4.2 |
| C36A U82A U90G A98C | ≤ -4.2 |
| C36A U90C A147U | ≤ -4.2 |
| C36G A37G G80A G86U C95A | ≤ -4.2 |
| C36G A39C C75G U101G U109G | ≤ -4.2 |
| C36G A40U U104A | ≤ -4.2 |
| C36G C43A A64G C93A | ≤ -4.2 |
| C36G C93A A107C C129G U144G A147C A150U | ≤ -4.2 |

| Variant | polymerase ribozyme fitness (log ratio) |
| --- | --- |
| C36G C95A U104G C114U A142U | ≤ -4.2 |
| C36G G50A C87U U102G G124U | ≤ -4.2 |
| C36G G50U G67C G74U G88U C114U | ≤ -4.2 |
| C36G G59U C105G | ≤ -4.2 |
| C36G G83U C125A G141C U145A | -4.09 |
| C36G G86A G117U U130A G140A | ≤ -4.2 |
| C36G G94U C118G A147U | ≤ -4.2 |
| C36G U53C C95A U102G C116G G136A | ≤ -4.2 |
| C36G U56A G94U A97C A120U C125U | ≤ -4.2 |
| C36U A39U G50C A52U A66G G92C | ≤ -4.2 |
| C36U A41G G84A C114U A115C G152A | ≤ -4.2 |
| C36U A52U C75G G88C C105A C114G A115G | ≤ -4.2 |
| C36U A64C G86C C105A C118U A119U | ≤ -4.2 |
| C36U A73G G83A G92A A98C U111G A120U | ≤ -4.2 |
| C36U A73U A138U G140C | ≤ -4.2 |
| C36U C43U U56A C93A | ≤ -4.2 |
| C36U C54A G58A G70A G84A C95A A115U G143U | ≤ -4.2 |
| C36U C54A G65C G67U G68U C95G A110C A113U C116U G143C C149A | ≤ -4.2 |
| C36U C63U G84U C103U C105U A147G A150G | ≤ -4.2 |
| C36U C69G A89C A97C A122C G141U U151G | ≤ -4.2 |
| C36U C76G A89U C96U | ≤ -4.2 |
| C36U C87U C93G A98U A147U U148C | ≤ -4.2 |
| C36U C95U | -1.98 |
| C36U G46C C85U G92A C99U | ≤ -4.2 |

| Variant | polymerase ribozyme fitness (log ratio) |
| --- | --- |
| C36U G46U G86U C105A G124U | -3.12 |
| C36U G48C A91U G92A | ≤ -4.2 |
| C36U G58A C79U C123U G141C | ≤ -4.2 |
| C36U G58U C69A U139A A142U | ≤ -4.2 |
| C36U G65A G86A G88A C108G G124A C125U G141A | ≤ -4.2 |
| C36U G80U C87U C93U | ≤ -4.2 |
| C36U G81C G86U G88U A147G | ≤ -4.2 |
| C36U U44A G46C C57A C87U U148G | ≤ -4.2 |
| C36U U44C C51U C79U C85G A98C C118U A147U | ≤ -4.2 |
| C36U U45G C57U G92C A122G | ≤ -4.2 |
| C36U U53G U56A G80C C85A C129U G140C | ≤ -4.2 |
| C36U U55A | -0.574 |
| C36U U56G C76G A106G C116U C129G A137C | ≤ -4.2 |
| C36U U61A C96U G112C A142C | ≤ -4.2 |
| C36U U61A G62A C63A A121G | ≤ -4.2 |
| C36U U61G C93A C103A U109A U134A G136U | ≤ -4.2 |
| C36U U145A G152A | -3 |
| A37C A41G C75G G94A | ≤ -4.2 |
| A37C A47C G71A C95U C105A U135A G140U | ≤ -4.2 |
| A37C A47C G88A G100A A137U | ≤ -4.2 |
| A37C A49C A52U C96U C114U G136A G140C | ≤ -4.2 |
| A37C A49C C54A U78G C93U G124A | ≤ -4.2 |
| A37C A49C C57G C75U A137U G141C | ≤ -4.2 |
| A37C A49C G50U G86A G124A | ≤ -4.2 |

| Variant | polymerase ribozyme fitness (log ratio) |
| --- | --- |
| A37C A49G C87U A115C | -3.32 |
| A37C A52C G81C A107C C132U | ≤ -4.2 |
| A37C A52U C96A | -2.87 |
| A37C A60G C93U C96G A97G A107G | ≤ -4.2 |
| A37C A60U C93A U144C | ≤ -4.2 |
| A37C A89C A150U | ≤ -4.2 |
| A37C A89C G140A U145G | ≤ -4.2 |
| A37C A97U | -0.373 |
| A37C C38A C93G C99A G126U | ≤ -4.2 |
| A37C C57A | 0.0979 |
| A37C C57A C87A | ≤ -4.2 |
| A37C C72G G136U G141U U146G | ≤ -4.2 |
| A37C C85U C105G C108G G141A | ≤ -4.2 |
| A37C C85U G88C A137U | ≤ -4.2 |
| A37C C93U | -1.64 |
| A37C C93U G136C G141U | -3.34 |
| A37C C95G | -2.69 |
| A37C C95U G141C | -1.7 |
| A37C C105U A107G G141C | ≤ -4.2 |
| A37C C116G | -0.143 |
| A37C G42U G92A A119U G152A | ≤ -4.2 |
| A37C G46A U61A G74A C93U A122U | ≤ -4.2 |
| A37C G48A C51U G86C G88A | ≤ -4.2 |
| A37C G48C C76A G86C C95A | ≤ -4.2 |

| Variant | polymerase ribozyme fitness (log ratio) |
| --- | --- |
| A37C G50A A73G C93A A106G | ≤ -4.2 |
| A37C G50U G59U G86U | -2.65 |
| A37C G58A U78G U90C G126A U145A | ≤ -4.2 |
| A37C G58C U90G U151A | ≤ -4.2 |
| A37C G59A A66C G67A G68U G83A C96G G117A | ≤ -4.2 |
| A37C G62U G86U G100C A107G | ≤ -4.2 |
| A37C G70C C87U U127C | ≤ -4.2 |
| A37C G71U G86A A106U C132G U145G | ≤ -4.2 |
| A37C G83U C93G A97G G100U | ≤ -4.2 |
| A37C G84A U101G G126C U135C | -3.6 |
| A37C G88U U90A C105G A107U A113C A137U U139A G152U | ≤ -4.2 |
| A37C G94C C105A U139C A150C | ≤ -4.2 |
| A37C U55A C96U A113U A137U | -4.18 |
| A37C U55A G68U C87U C93U G126A | ≤ -4.2 |
| A37C U55A G84C C99U A107G U134A | ≤ -4.2 |
| A37C U55G G94A | 0.0696 |
| A37C U56A G74A A89U G94U C105U C108A | ≤ -4.2 |
| A37C U56G C57U G68U C75G G84A C129G | ≤ -4.2 |
| A37C U61A A66G C75U A89G A113U C114U C149A | ≤ -4.2 |
| A37C U77C G92A C96A U139C | ≤ -4.2 |
| A37G A39C C87A C116U G136A | ≤ -4.2 |
| A37G A39G C93G A120C G140A | ≤ -4.2 |
| A37G A39U G58C G62A C63U A64U U77A C87G C103G A150U | ≤ -4.2 |
